± gives the standard deviation of the averaged measurements. Some of the results follow.
tested on: PfAP2-EXP AP2 domain (GST-tagged); test: gcPBM binding intensity (ln(normalized median fluorescence intensity)); higher = stronger DNA binding
Procedure, shortened: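 Alexa488 anti-GST antibody, scanned at 488 nm, detected GST-tagged P. falciparum DNA-binding domains that had been expressed in E. coli and incubated for 1 h on an Agilent 4 × 180k array. The array carried primer-extended double-stranded 36-bp intergenic genomic probes and negative controls. Binding intensity is the highest Masliner-normalised natural-log median intensity across replicate spots of either orientation of each probe.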

Sequence | gcPBM binding intensity (ln)
TGATATTATATATATACACACATGTATGTATTTATA [CACACA_site4874] | 8.32 ± 0.42
GTATCAAAAGAATACACACACACATACAGATATATA [CACACA_site5975] | 8.61 ± 0.67
ATAAACAAACATAAATCTGATTTTAATTTTTTTAAG [CACACA_negctrl_site313] | 7.88 ± 0.44
TTATATTTTCTCCGCGTGCACATATGTATACTATAC | 9.34 ± 0.23
TTTTTGTTTTTTTGTTTATCGTTCGTGACTACATGA [TGCATGCA_negctrl_site124] | 8.74 ± 0.51
GAAATCTAAATAGAAACACACATATATATATATATA [CACACA_site3863] | 10.1 ± 0.61
TAGGGTAGTTATAATTGTACTTTTCTCCAAAAAAAA [XGTACX_site7321] | 8.32 ± 0.52
AAAAATAAAAAATATAAAAATATAAAAATATAAAAA [XGTACX_negctrl_site51] | 8.32 ± 0.38
TCTTTTTCATCTTTCAACAAAAAATAATATATGTGT [CACACA_negctrl_site866] | 8.48 ± 0.52
TAAATTTGTGTTATTAAAAAAATGGTTTAAAAATGT [XGTACX_negctrl_site352] | 8.41 ± 0.34
AAATATACAATATTCACACAAAAAAATACATTACAA [CACACA_site5004] | 8.6 ± 0.52
ATATATTTATATTGTACACACATTTATGCATATATA [CACACA_site7502] | 8.79 ± 0.35
TGTTTTTATAAAATAAATAAATATATATATATATAT [CACACA_negctrl_site502] | 10.1 ± 0.26
TTTCTTACAAAAGCTAGAGTTTTTTTTTTTTTTTTT [XGTACX_negctrl_site341] | 8.5 ± 0.24
TTAGTCCATATTTTTGCACACCATTTTTTTTTTTTT [CACACA_site3927] | 8.9 ± 0.41
AGAATAAATATGCACACATGCATATATTTTTACACT [TGCATGCA_site893] | 8.84 ± 0.27
ATCCTTAATATGAACACACAAATATATTGCACATAT [CACACA_site6230] | 8.88 ± 0.13
ATATGCATAAAAAGAGGTACACATAAAATATATATA [XGTACX_site5864] | 8.98 ± 0.35
TATACACATATATAAAGTACATATATGTGTAAAAAA [XGTACX_site8582] | 8.44 ± 0.35
CAGATATTTGTTCATATACACACTTTTGATAAAATA [CACACA_site1219] | 8.41 ± 0.44
AATATTTTTTGTTTTACACACATATATAGATATATA [CACACA_site7662] | 8.56 ± 0.38
TCATATATAAAAAGGGTGCTTTTAAAAGAATGGATT | 9.12 ± 0.32

Sequence | gcPBM binding intensity (ln)
CAAAAAATGAAACACACACACACACCCATAAATAAA [CACACA_site1231] | 8.7 ± 0.54
TTTTTTTTTGTATTTTCACACATTTTTTTTTTTTTT [CACACA_site5407] | 8.47 ± 0.53
TTATTTAAACAAATCACACACAAATATATATACATA [CACACA_site2019] | 8.46 ± 0.62
TTTTTTGGGTAAAATTATAAAATATGTATATATAAA [CACACA_negctrl_site27] | 8.15 ± 0.41
CATATTTTCAAAATTAGTACATAAAAAAAAAAATAT [XGTACX_site3101] | 8.62 ± 0.49
TATAATCATATATACACACACATATATATATATATA [CACACA_site2168] | 10.2 ± 0.43
TCTTCCGCTTTATGGAGTACTATGGTAGCCTTTCCT [XGTACX_site2958] | 8.64 ± 0.42
GACCTACAAAAAGGCACACATATACGCATACATACA [CACACA_site2179] | 8.59 ± 0.4
AAAAAAAAAAGACACACACACACACGGAGATATATA [CACACA_site6216] | 8.85 ± 0.52
TTTAATACTTTTTTCTGTACACACTTGATTTACTAT [XGTACX_site5925] | 8.85 ± 0.38
AATTTTAATTATATCACACATAATATATACCAAAAA [CACACA_site6011] | 8.51 ± 0.38
TACATATTTTTATATACACACAATAATTACTATAAA [CACACA_site6879] | 8.29 ± 0.42
TAGGTACATAAATTGGTGCAAAGTGTACATATATAT | 9.255 ± 0.064
AAAATACATAAACGTTCACACATTGAAGATCACAAG [CACACA_site5347] | 8.61 ± 0.45
AACATATACACGAACACACACACATATAAATAAATA [CACACA_site6380] | 8.74 ± 0.56
AAAAATACAATTTTCTTGCACTTTGTTGCATTGTAA | 8.54 ± 0.16
CAAAATATAAAAACATGTACATAAATATTAACGAAT [XGTACX_site2380] | 9.08 ± 0.38
TCATCCACATATTGTAGTACAAGATAATTGTTTATT [XGTACX_site1634] | 8.76 ± 0.13
ATATGTTTATTAAATGCATGTCAAGACTTAAGATAT [TGCATGCA_site329] | 8.66 ± 0.47
TTTATTTATAGACACACACACAAAAAAAAAAAAAAA [CACACA_site7280] | 8.24 ± 0.58
TTGTATATATATGGAAAAATATATATATATATATAT [GTGCAC_negctrl_site591] | 10.3 ± 0.29
TTTTTTTTTTTTTTTATAAAAGATAATTTTTTTTTA [CACACA_negctrl_site133] | 8.07 ± 0.45
